# Measurements as given in the supplement of paper PMC3334620.
# Whole data set: some 33,000 sequences, median “E-score (-0.5 to 0.5)” near -0.012, cut for the highest 2% near 0.29. The list shows a part of the results.
# Target: T1, Ybr033w (UniProt P38073)
# T1 sequence: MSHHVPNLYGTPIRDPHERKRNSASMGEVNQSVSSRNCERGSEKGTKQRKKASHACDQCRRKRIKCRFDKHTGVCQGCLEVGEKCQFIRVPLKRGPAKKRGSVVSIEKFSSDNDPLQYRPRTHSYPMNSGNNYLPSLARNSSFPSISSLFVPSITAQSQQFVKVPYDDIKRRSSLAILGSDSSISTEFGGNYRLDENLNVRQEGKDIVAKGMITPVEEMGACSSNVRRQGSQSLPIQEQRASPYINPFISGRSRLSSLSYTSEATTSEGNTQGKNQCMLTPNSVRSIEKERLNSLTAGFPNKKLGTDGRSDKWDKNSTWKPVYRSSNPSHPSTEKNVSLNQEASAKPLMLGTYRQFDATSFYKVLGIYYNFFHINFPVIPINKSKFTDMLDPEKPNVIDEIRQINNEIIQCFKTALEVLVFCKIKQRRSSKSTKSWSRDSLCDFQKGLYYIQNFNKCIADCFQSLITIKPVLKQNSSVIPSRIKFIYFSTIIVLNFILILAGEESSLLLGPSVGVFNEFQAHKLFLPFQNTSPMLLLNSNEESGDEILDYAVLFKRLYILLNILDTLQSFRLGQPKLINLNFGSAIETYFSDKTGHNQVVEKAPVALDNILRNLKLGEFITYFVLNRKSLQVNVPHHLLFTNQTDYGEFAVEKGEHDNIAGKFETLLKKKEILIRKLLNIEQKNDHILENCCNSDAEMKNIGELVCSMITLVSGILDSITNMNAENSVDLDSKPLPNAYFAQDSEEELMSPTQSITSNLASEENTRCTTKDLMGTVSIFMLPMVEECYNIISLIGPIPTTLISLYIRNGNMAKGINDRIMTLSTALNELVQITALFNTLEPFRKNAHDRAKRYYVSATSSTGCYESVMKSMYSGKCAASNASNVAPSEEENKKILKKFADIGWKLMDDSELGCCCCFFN
# Assay: PBM E-score (8-mer binding enrichment) (E-score (-0.5 to 0.5)); higher = stronger / more preferred TF binding; most listed sequences are background and not binding sites
# Conditions: protein concentration: 200 nM; construct: GST-full length
# Procedure: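 Universal 'all 10-mer' protein binding microarrays (Agilent AMADID 015681) probed with GST-tagged S. cerevisiae TFs (full-length or DBD) made by in vitro transcription/translation (PURExpress), about 100-200 nM. Bound TF was detected with fluorescent anti-GST. Each ungapped 8-mer (which stands for itself and its reverse complement) is scored by the PBM enrichment score (E-score), a modified Wilcoxon-Mann-Whitney statistic from -0.5 to +0.5, computed with the Universal PBM Analysis Suite. Scale: above 0.35 generally sequence-specific binding.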
row,Sequence,PBM E-score
1,ACTTGTGG,-0.00733
2,CAAGGAGC,-0.0227
3,CCCACAAG,-0.0953
4,AAGGATCG,0.103
5,TACACGTA,0.0731
6,CCCTACAC,0.0236
7,CGTCATCA,-0.0526
8,AATGAGGT,0.156
9,CAACGCAC,-0.227
10,ATAATAGC,0.00134
11,CTAGTCTC,-0.178
12,GGAGGATA,-0.0323
13,ATCTCGAA,-0.0302
14,ATTTCTGG,0.176
15,CTGTGAGC,-0.0445
16,TGAGGGAA,-0.048
17,ATTTAAGG,0.0525
18,AATCATGG,0.119
19,AGCAGGCC,-0.0674
20,AATAGTCA,0.0746
21,CTACGCTA,-0.105
22,AACGTCTC,-0.0416
23,GCTCCAAA,-0.128
24,AACGAGCA,-0.136
25,ATCCTATG,-0.0468

row,Sequence,PBM E-score
1,ATCTCCGG,0.121
2,ATTAATAA,0.302
3,ATACTTCA,0.143
4,CAATAAGA,0.145
5,ATCCCCGA,-0.11
6,ACGGCTCT,-0.0486
7,ATCTTAAA,0.0947
8,CCTTGCTA,0.00278
9,GAGCCCCC,-0.415
10,CAAGCGGA,-0.131
11,CTGCGATC,-0.152
12,AGCTGAGC,-0.164
13,AAAGGCAT,0.115
14,AATCCTTG,0.138
15,GGAGGCGA,-0.159
16,CCTCATTA,0.205
17,ATTTGCTG,0.212
18,TCGCCAAA,-0.0465
19,AGTTCTCG,0.123
20,AATATCAC,0.239
21,CAGCGACC,-0.228
22,AAGTCAAC,0.18
23,CAGGTGGA,-0.147
24,TGTAACAA,0.0774
25,ATTCTCAG,0.0338

row,Sequence,PBM E-score
1,AACGCCCC,-0.161
2,ATCAGAAA,0.044
3,ACTTTCAT,0.0376
4,AATAGGGC,-0.106
5,CTTAACTA,0.0617
6,ATCTTAAG,0.0705
7,CTAGTGAG,-0.0318
8,CGTCTGAC,-0.0411
9,GCTCCACA,-0.25
10,GAAAAAGC,0.239
11,CAACTGAC,-0.115
12,ACGAAAAG,0.164
13,ATCACAAC,0.118
14,GTACATAC,0.0751
15,AGCGCCGA,-0.0522
16,AGAGCCTA,-0.0498
17,TCTGCAAA,0.0324
18,AACACGTT,-0.0899
19,GCAATAGA,0.00182
20,ATGCTATA,0.0582
21,AAGAAATA,0.27
22,CTCCTTTA,-0.0477
23,AAAGTAAA,0.166
24,ATTGCATC,0.183
25,AGAAAGTG,-0.0806

row,Sequence,PBM E-score
1,ATGAGTAA,0.167
2,CTTTTCCC,0.0333
3,ATACAATG,0.222
4,GGGGCACC,-0.396
5,AACATGGC,-0.0522
6,AATGGGAA,-0.0743
7,AAGAAGAT,0.205
8,CGGTGAAA,0.0862
9,CTCCCCGA,-0.221
10,AAACTTCA,0.293
11,ACATAAGT,0.172
12,GATTAAGC,0.104
13,CAAATCTG,0.053
14,AATTTAGC,0.239
15,ACGGCGAT,0.0661
16,AAAGTTCT,0.0699
17,ACGCGACG,-0.109
18,CACTACAA,0.214
19,AAAGACCG,-0.148
20,CCGACCTA,-0.0189
21,GAAACTGA,-0.185
22,GCACTCCC,-0.13
23,ATCGAGAT,-0.00279
24,TCGGTCAA,0.00935
25,CGTCGCTA,-0.0271

row,Sequence,PBM E-score
1,CGCCTTGA,-0.188
2,CGCAACTA,0.16
3,CCGTTCCA,-0.0333
4,TCTGACAA,0.191
5,AGCTATTA,0.0432
6,ATAATTCA,0.241
7,GAAGGCGC,-0.244
8,GAGCCTAA,0.0041
9,TGCCGTAA,-0.0769
10,CAAGAACC,0.137
11,CGTTAACG,-0.204
12,ACAGTTAG,0.118
13,AGAGTGTG,-0.0636
14,GACTCGTA,0.0838
15,ACACATAG,-0.0312
16,CAATCCAG,0.033
17,CTTTACGC,0.0935
18,CACTATGG,-0.124
19,CAAAGCGG,-0.0457
20,AGCGTCAT,-0.0481
21,ACCTAAAC,0.0549
22,CCCATACA,-0.206
23,ATGCCTGG,-0.193
24,ACTTGCAT,0.146
25,GCTACGTA,0.164

row,Sequence,PBM E-score
1,ACAGCGGG,-0.0581
2,ATTGCAGC,-0.142
3,CATAGGAC,-0.0275
4,CAGAACGA,0.0764
5,AGATCGCC,-0.165
6,ATCCTAGC,0.0772
7,AGAAACCA,0.1
8,GGGGAAAA,0.208
9,CGGCTGCA,-0.134
10,GTTCTACA,-0.0278
11,ATCGGTTA,0.187
12,GCCACCGC,-0.243
13,GAAGAAAA,0.238
14,CTTTATTC,0.192
15,CCCTGGCC,-0.236
16,CGACCTAA,0.216
17,CGAGTCTC,-0.177
18,GTTTATAA,0.162
19,CATAGTCA,0.0728
20,CAAGATTG,0.141
21,CCTGCAGG,-0.352
22,ACCCGTGC,-0.254
23,CACCCCTC,-0.157
24,ATAACTAC,0.112
25,AGAAGAGG,-0.111

row,Sequence,PBM E-score
1,CATTTTGA,0.152
2,CGCTTAAA,0.00456
3,CGACCCCG,-0.33
4,AGACTACG,-0.182
5,AAATATAG,0.305
6,GCATACAC,0.00233
7,GAGGCTCA,-0.271
8,CTCCCAGC,-0.306
9,CCTTTATC,-0.00208
10,TAAGGATA,0.191
11,ATTATTCA,0.231
12,GCTGGGAA,0.0395
13,ATCTCTCA,0.241
14,TAAGTGTA,0.139
15,TTAGCCAA,-0.00909
16,TAACAGAA,0.212
17,CGCACCCC,-0.273
18,CGTTCGCA,-0.0102
19,CCGGGTAG,0.0639
20,CGTAACGA,-0.0743
21,ACTGCGGC,-0.0387
22,TATCTTCA,0.149
